According to PubChem BioAssay AID588453 (National Center for Advancing Translational Sciences (NCATS), 2011):
Values joined by “and” are separate entries in the source; they are usually repeats but may differ in a detail not shown here. Equal entries are not always repeated. Among all 390,000 compounds or so, about 4,000 (1%) were called active. Inconclusive results, whose numbers are uncertain, are shown with a selection of clear calls. Calls come from the whole dose curve; as a rule, active = well fitted inhibition curve with a large enough effect; inconclusive = small, poorly fitted or top-dose-only effect; inactive = no such curve, though single readings can be large or run the other way. Potencies of inconclusive entries are doubtful fits and often do not repeat.

target: Thioredoxin reductase 1, cytoplasmic (Rattus norvegicus) (UniProt O89049); assay: qHTS Assay for Inhibitors of Mammalian Selenoprotein Thioredoxin Reductase 1 (TrxR1): qHTS; conditions: recombinant rTrxR1, NADPH fluorescence consumption, selenite substrate; series mostly up to 114 µM; note: nearly all actives have a fitted effect of over 65% in size
In short: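 Rat TrxR1 (90 nM in the dispensed reagent) was pre-reduced with 400 uM NADPH for 5 min at room temperature, then incubated with compound for 15 min. After 400 uM selenite was added, NADPH fluorescence (Ex 340/Em 450 nm) was followed for 8 min.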
Potency is the fitted concentration of half-maximal effect; tags give direction and shape of the fitted curve.

Sequence of UniProt O89049 (O89049 whole entry, looked up): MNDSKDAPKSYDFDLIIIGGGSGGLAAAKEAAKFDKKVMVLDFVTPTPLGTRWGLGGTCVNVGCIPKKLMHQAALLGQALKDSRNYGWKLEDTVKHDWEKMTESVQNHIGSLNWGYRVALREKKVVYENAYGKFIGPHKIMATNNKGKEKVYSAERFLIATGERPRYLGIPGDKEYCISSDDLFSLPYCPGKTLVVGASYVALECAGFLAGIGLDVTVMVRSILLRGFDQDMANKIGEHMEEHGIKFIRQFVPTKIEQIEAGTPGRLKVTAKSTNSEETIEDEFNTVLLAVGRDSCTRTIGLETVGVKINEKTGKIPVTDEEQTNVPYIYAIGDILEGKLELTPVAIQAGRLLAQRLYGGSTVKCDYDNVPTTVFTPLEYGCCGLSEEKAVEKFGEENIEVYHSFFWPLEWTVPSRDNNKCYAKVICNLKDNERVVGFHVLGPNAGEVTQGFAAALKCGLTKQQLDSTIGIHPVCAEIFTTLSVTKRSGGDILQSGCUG

Structure (SMILES)	Potency
Cc1ccc(C)c(S(=O)(=O)NCc2ccc(C(=O)N3CCC(Cc4ccccc4)CC3)cc2)c1	inactive
O=C(c1ccc2c(Cl)c3c(nc2c1)CCCC3)N1CCN(c2ccc(F)cc2)CC1	inconclusive: 15.8 µM [inhibitor, partial curve]
CSc1nnc(NC(=O)c2nc(S(=O)(=O)Cc3ccccc3)ncc2Cl)s1	active: 31.6 µM
Cc1ccc2[nH]c(=O)c(C(c3nnnn3CC3CCCO3)N3CCc4ccccc4C3)cc2c1 (stereo unspecified)	inconclusive: 25.1 µM [inhibitor, partial curve]
Cc1c(Cl)cccc1NC(=O)CSc1ncccc1C(=O)Oc1ccccc1Cl	inactive
O=C(NCc1cccnc1)c1ccc(-c2cc(Cl)ccc2Cl)o1	inconclusive: 56.2 µM [inhibitor, single point]
O=C(CN1C(=O)COc2ccccc21)NCCCN1CCN(c2ccccc2F)CC1	inconclusive: 89.1 µM [inhibitor, single point]
O=C(COC(=O)CCCC1=NS(=O)(=O)c2ccccc2N1)Nc1ccc(Br)cc1	inactive
CO/N=C(\C(=O)N[C@@H]1C(=O)N2C(C(=O)O)=C(COC(C)=O)CS[C@H]12)c1csc(N)n1 (stereo in doubt)	inconclusive: 37.7 µM [inhibitor, single point] and inconclusive: 70.8 µM [inhibitor, partial curve]
OCc1ccc(-c2nn(Cc3ccccc3)c3ccccc23)o1	inconclusive: 50.1 µM [inhibitor, partial curve, poor fit] and inconclusive: 5.01 µM [inhibitor, full curve] and inconclusive: 15 µM [inhibitor, partial curve]
Cc1nn(-c2ccccc2)c(Cl)c1/C=C(\C#N)C(=O)NC(C)C	inconclusive: 89.1 µM [inhibitor, single point]
O=C(N/N=C/c1cc([N+](=O)[O-])ccc1O)c1cc(-c2ccccc2)nc2ccccc12	inconclusive: 89.1 µM [inhibitor, single point]
CC1CCN(C(=O)c2[nH]cnc2C(=O)Nc2nccs2)CC1	inconclusive: 56.2 µM [inhibitor, single point]
COc1cccc(N2C(=O)CC(c3c[nH]c4ccccc34)C2=O)c1 (stereo unspecified)	inactive
CN(C)CCCN(C(=O)CCS(=O)(=O)c1ccccc1)c1nc2cc3c(cc2s1)OCO3	active: 6.31 µM
CCOc1nc(-c2ccccc2)ccc1-c1noc(COC)n1	inactive
CC1(C)CC(C#N)(N2CCOCC2)CCO1 (stereo unspecified)	inconclusive: 3.16 µM [inhibitor, partial curve, poor fit]
COCCn1c(C)cc(O)c(C(c2ccccc2)N2CCN(C)CC2)c1=O (stereo unspecified)	inconclusive: 14.1 µM [inhibitor, partial curve]
Cc1cccc(NC(=O)CSc2nc3ccc(NC(=O)c4ccco4)cc3s2)c1	inconclusive: 89.1 µM [inhibitor, single point]
COC(=O)\C(C(C)=O)=C(/C=C/C=C/C=C/N(C)C)N(C)C	inconclusive: 20 µM [inhibitor, partial curve, poor fit]
CC(C)c1nc2sc3c(c2c(=O)o1)CCCC3	inactive

Structure (SMILES)	Potency
CCOC(=O)C1=C(CS(=O)(=O)c2c(C)cc(C)cc2C)NC(=O)NC1c1cccc(OC)c1 (stereo unspecified)	inactive
CC(C)Cn1c(SCC(=O)c2ccc(Cl)s2)nnc1-c1ccco1	inconclusive: 50.1 µM [inhibitor, partial curve]
O=C(c1ccco1)[C@@H]1[C@@H]2C(=O)N(c3ccc(Br)cc3)C(=O)[C@@H]2C2c3ccccc3C=CN21 (stereo partly specified)	inconclusive: 31.6 µM [inhibitor, partial curve]
Cc1cc[n+](-c2[nH]c(=O)sc2/C=N/NC([S-])=Nc2ccccc2)cc1C	inconclusive: 39.8 µM [inhibitor, partial curve]
COc1ccc(C2Nc3ccccc3C(=O)N2Cc2ccco2)cc1OC (stereo unspecified)	inconclusive: 39.8 µM [inhibitor, partial curve, poor fit]
C[C@@H]1COC(=O)[C@@H](CC(=O)OC(C)(C)C)C/C=C\C[C@@H](CC(=O)N(CCO)Cc2ccccc2)C(=O)N1	inactive
S=c1[nH]nc(-c2ccc(Cl)cc2)n1-c1cccnc1	inactive
CCN(C(=O)COC(=O)/C=C/c1ccco1)c1c(N)n(Cc2ccccc2)c(=O)[nH]c1=O	active: 50.1 µM
C/C(=C\c1ccco1)C1C(C#N)=C(N)Oc2n[nH]c(-c3ccccc3)c21 (stereo unspecified)	inconclusive: 44.7 µM [inhibitor, partial curve, poor fit]
Nc1ccccc1SC(C[N+](=O)[O-])c1ccccc1 (stereo unspecified)	active: 7.94 µM
CN(C)c1nc(N)nc(/C(C#N)=C/C2CC3C=CC2C3)n1 (stereo unspecified)	inconclusive: 70.8 µM [inhibitor, single point]
CCC(=O)N1CCc2cc(Br)cc(S(=O)(=O)N3CCCC(C(=O)Nc4cccc(Cl)c4C)C3)c21 (stereo unspecified)	inactive
COc1ccccc1N1CCN(C(c2ccc(N(C)C)cc2)c2nnnn2CCc2ccccc2)CC1 (stereo unspecified)	active: 3.16 µM
CCOC(=O)C1C(C(=O)OC)=C(c2ccc(OC)cc2)c2ccc(OC)cc2N1S(=O)(=O)C(F)(F)F (stereo unspecified)	inconclusive: 79.4 µM [inhibitor, single point]
O=C(O)c1ccc(-c2cccc([N+](=O)[O-])c2)o1	inconclusive: 20 µM [inhibitor, full curve]
COc1ccc(CC(=O)n2[nH]c(=O)cc(C)c2=O)cc1OC	inconclusive: 39.8 µM [inhibitor, single point]
CS(=O)(=O)Nc1ccc(C2=NN(C(=O)c3ccco3)C(c3ccccc3F)C2)cc1 (stereo unspecified)	inactive
Cc1ccccc1C(=O)Nc1ccnn1C1CCN(C2CCSCC2)CC1	inactive
Cc1cc(NS(=O)(=O)c2ccc(NC(=S)NC(=O)/C=C/c3ccccc3)cc2)no1	inconclusive: 89.1 µM [inhibitor, single point]
Cc1ccc(N(CC(=O)NCc2ccccc2)C(=O)CCC(=O)Nc2ccccn2)cc1C	inactive
